# Assay results published in the supplement of paper PMC3334620.
# Over roughly 33,000 sequences, “E-score (-0.5 to 0.5)” has its median near -0.016; the highest 2% begin near 0.31. This is one part of the list.
# Target: Cst6 (UniProt P40535)
# Experiment: PBM E-score (8-mer binding enrichment) (E-score (-0.5 to 0.5)); higher = stronger / more preferred TF binding; most listed sequences are background and not binding sites
# Conditions: protein concentration: 200 nM; construct: GST-DNA-binding domain
# Experimental: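 Universal 'all 10-mer' protein binding microarrays (Agilent AMADID 015681) probed with GST-tagged S. cerevisiae TFs (full-length or DBD) made by in vitro transcription/translation (PURExpress), about 100-200 nM. Bound TF was detected with fluorescent anti-GST. Each ungapped 8-mer (which stands for itself and its reverse complement) is scored by the PBM enrichment score (E-score), a modified Wilcoxon-Mann-Whitney statistic from -0.5 to +0.5, computed with the Universal PBM Analysis Suite. Scale: above 0.35 generally sequence-specific binding.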
row,Sequence,PBM E-score
1,AACACTGA,0.192
2,ATACTCCC,-0.076
3,AAGTAGTA,-0.0162
4,CGCGAATC,0.0524
5,ACCAAGAA,0.193
6,TTCGAAAA,0.296
7,ATTTAGCA,0.123
8,TAGCAGAA,0.107
9,AGGATGAG,-0.0545
10,ACGTGGAA,0.15
11,AGGGAGAC,-0.219
12,CCTCTGGC,-0.193
13,GTTGCCCA,-0.135
14,AGCTTGTG,-0.155
15,GTGCTACA,-0.0692
16,GGATCCCC,-0.321
17,CATCTGCA,0.0895
18,CTTGGCCC,-0.272
19,GTTTAGTA,0.236
20,AAGCTCTG,-0.22
21,CTAAGCAA,-0.0396
22,ACGAATTG,0.129
23,GTTTTGCA,0.102
24,GAGCTTCA,-0.0375
25,AGTTTCTG,0.0556

row,Sequence,PBM E-score
1,AGCTCTCA,-0.143
2,CGAACGAA,0.0744
3,CCCAGTGC,-0.121
4,GATCGAAC,0.0108
5,CAAGTTTA,0.139
6,GCGGTTAC,0.191
7,ATAGCAGC,-0.226
8,AAATAAGT,0.14
9,ACCCTAGC,-0.247
10,ATACATAC,0.0814
11,GTAGTGGA,0.12
12,ACCACTCG,0.0831
13,CCCTCCTC,-0.264
14,AGTCTTTG,-0.16
15,GGCCTTGA,-0.206
16,TCTTTCAA,-0.0829
17,CTTTGACC,0.0719
18,ACGTACCA,0.195
19,AATCTCTC,0.082
20,GCATCGGA,-0.0274
21,CGGATTCA,-0.229
22,GCTGAGGA,-0.236
23,ACGGTTAG,-0.241
24,TAACAGCA,0.116
25,AGGAATGC,-0.148

row,Sequence,PBM E-score
1,AATCCGAG,-0.0702
2,AACAGCAC,0.0862
3,CATAGAGG,-0.0937
4,GCGGGTAA,-0.0692
5,AGCATTAT,0.115
6,GGCCGTAC,0.273
7,ACGAGGTC,0.00072
8,ACCCGAAA,-0.0247
9,GGGTATTA,-0.0844
10,CTCATTTC,-0.0101
11,CGTGAACA,0.105
12,AATTAGGC,0.152
13,ATATGTGC,0.103
14,ATTTGCCC,-0.00418
15,ACTGGTAC,-0.00774
16,CGTCATGA,0.461
17,ATACCGAG,-0.104
18,TAGGTCAA,0.175
19,CGTAATAG,0.318
20,ATAGTCTA,-0.173
21,TCCGTCCA,-0.0937
22,CCTAATTA,-0.00674
23,CCCCCATC,-0.294
24,GTCCTTAA,0.00524
25,AATCCGGC,-0.295

row,Sequence,PBM E-score
1,ACAAACAA,0.115
2,CTGCATCC,-0.101
3,ATATATTC,0.272
4,CAGTCATC,-0.0341
5,CCACCTGC,-0.0532
6,CCTTTCTC,-0.118
7,CGTACCGA,-0.0983
8,AGAAATCC,0.0363
9,AGGGATTA,0.0102
10,AATCCGTC,0.155
11,CGAAGAAG,0.00861
12,GAACGGGA,-0.138
13,ACCCAAGC,-0.273
14,CCTGAGCA,-0.0829
15,ACTACCAC,-0.0255
16,GTGGCGGA,-0.226
17,CCTTGGAA,-0.125
18,AGGATACA,0.0231
19,AAACTCTT,-0.108
20,GACAAGGA,-0.153
21,CTAGTGCC,-0.125
22,CAGCCACG,-0.052
23,ACAAGGCA,0.0619
24,ACTACCTG,-0.0823
25,GAGTGGCA,0.0514

row,Sequence,PBM E-score
1,AGTCTCAA,-0.217
2,GTACACAC,-0.0526
3,TGGGCCCA,-0.242
4,TAACCAAA,0.18
5,AAAAGGCT,-0.0129
6,ACTAGGTA,-0.0717
7,CCGACATA,-0.032
8,TGACTAAA,0.186
9,CTAAATAC,0.0876
10,CTTGATGA,0.24
11,ACCTGTCG,0.066
12,CGTCGAAG,0.0366
13,CGTCCATC,0.078
14,CGAAGATC,-0.0128
15,AGTGGTAA,0.00907
16,ATTGAGAA,0.164
17,ACCGTCGA,-0.0554
18,GGCGTAAA,0.153
19,GCCAAAAA,0.145
20,ATAAACAC,0.0891
21,CGCCGATC,0.0491
22,TGGGACAA,-0.0808
23,ACGAACAG,-0.0654
24,ACATTCCT,-0.116
25,CATCTCTA,0.136

row,Sequence,PBM E-score
1,AAGAACCG,0.123
2,GACCGCAA,-0.0265
3,GCGGTTCA,-0.158
4,GCAACCTA,-0.0372
5,CCCCCAAG,-0.23
6,AGCCGAAC,-0.127
7,CCAGCACG,-0.23
8,CTCAGGAC,0.0661
9,AACTACAT,0.0604
10,ACTTCTAT,-0.00535
11,CCTCCAGG,-0.437
12,ATGCACGA,-0.0573
13,CACAAACC,0.0115
14,GAGCTCCA,-0.266
15,ATAATTAA,0.322
16,AGCATCAC,0.0541
17,ACAAGTGT,-0.0775
18,ACATGGAG,-0.247
19,AAGACATT,-0.169
20,GATCGGTA,0.0438
21,ACGATCTG,-0.131
22,AGCAGGGC,-0.138
23,GCACCGCC,-0.232
24,GCATGAAA,0.117
25,CGCCCTGA,0.0277

row,Sequence,PBM E-score
1,CTGGTATC,-0.173
2,GTTTTCTA,0.228
3,ATAATCCG,-0.00488
4,AGTACTTC,0.0282
5,GCCCTGTA,-0.0674
6,GAAAAAGA,0.07
7,GCAAAAAA,0.207
8,ATTCCGGA,-0.094
9,GCGTTACA,0.0402
10,ATCTGTGG,-0.234
11,GCAGCAGA,-0.0713
12,GCGCGGGA,-0.137
13,GCGCCACC,-0.043
14,ATTTCATC,0.294
15,CAGGAATC,-0.0374
16,TATAATGA,0.273
17,AGAACCAG,-0.185
18,ATTAAGTG,0.127
19,GGTTCAAA,0.126
20,CGCACCAG,0.0262
21,CGTATCCC,-0.17
22,AGGCGAAG,-0.139
